Assay results published in PMC4242493.
The other results are listed elsewhere or left out. The list includes weakly bound sequences.

Molecular target: MaxL homodimer (UniProt P61244)
Assay: universal protein-binding microarray (PBM)
Settings: PBS-based mixture, 10 nM His-tagged protein dimer, 2% milk, 200 ng/uL BSA, 50 ng/uL salmon testes DNA, 0.02% TX-100; detection with Alexa 488 anti-His …; high values mean tight binding; most listed sequences are background and not binding sites; double strand, one strand shown

Sequence of UniProt P61244 (P61244 whole entry): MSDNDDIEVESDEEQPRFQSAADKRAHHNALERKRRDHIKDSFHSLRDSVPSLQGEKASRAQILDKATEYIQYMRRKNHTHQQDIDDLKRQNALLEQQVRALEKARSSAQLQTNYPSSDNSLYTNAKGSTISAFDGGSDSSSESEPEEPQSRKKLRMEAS

Sequence	binding signal (normalized occupancy)
CGCTTGAG	0.0665
AACTTTGC	0.0667
AAAAGATG	0.0789
ATGTGATA	0.0999
CGTGTACA	0.0823
ACGTCCAC	0.0784
ATTGTCAG	0.0763
ACATTGTG	0.0901
AGTGTGTG	0.0828
AATATCCC	0.0803
CCCGCGAG	0.0726
ACTGCCAC	0.0753
AAATTGTA	0.0768
GGCCGGTA	0.0757
AACATCTC	0.0748
GGTTATCA	0.0822
CAGTCCAC	0.078
CATAGACG	0.0804
ACCTGCCG	0.0699
ACATAAAT	0.0889
GTTTCTCA	0.0753
CTGTCGCA	0.0742

Sequence	binding signal (normalized occupancy)
AAGGACAG	0.0739
ATAGTCCG	0.0727
GATCGGCA	0.0763
GAACGAAC	0.0739
CGGCGGAC	0.0709
CGTCCACG	0.0822
AGCATCCT	0.0767
ATCCTCCA	0.0797
CTCAATGA	0.075
CAAATAAA	0.0762
CCCAAACA	0.0761
GTAGACTA	0.073
AGGCGTAA	0.0741
AAAGGCCT	0.0723
CGGCCTGC	0.069
ATCAGCGG	0.0723
CAAGGCGG	0.0729
CAGTTTGC	0.0742
ATAACTCG	0.0786
CATCGAAG	0.0787
CATACGGA	0.078
GACTGCGC	0.069

Sequence	binding signal (normalized occupancy)
CTAGTGGC	0.0765
CTACTGAC	0.0715
ACATGCGA	0.0989
AACAGACG	0.075
CGAAGAAA	0.0773
AACGTCGA	0.0741
ACGATCTA	0.0767
CAAGCAGG	0.0708
ACCCCCAT	0.0853
AACCGACA	0.0771
AGATGCTA	0.0746
ATCGCTCG	0.0725
ACCTAACG	0.0729
TCGGAGCA	0.0695
CTAGGAAG	0.0688
ACTATACG	0.0815
GTCCAGGA	0.0695
GCATGTGA	0.157
CCAATTCC	0.0767
ACTCGCCG	0.0704
GAATATCA	0.0792
CGACTCGA	0.0696

Sequence	binding signal (normalized occupancy)
ACACAGGG	0.0803
ATTTGGCG	0.0755
AGCGTTTG	0.0699
GCAATTCC	0.0732
CCAGCTCG	0.0653
CGCTCCCG	0.0639
CGATATAC	0.08
GTGTCAGA	0.0842
AGAAAGGG	0.0755
GCACCTTA	0.0768
ATTTTGAA	0.0713
GGAGTGCC	0.07
CAAAAGAC	0.0705
AGATCGCC	0.0749
CTTGAGGC	0.069
AGGAGATC	0.0735
AATGCTTG	0.0731
ACGAACTC	0.0737
ATGGAATC	0.0846
AATTCAAC	0.0747
CAGAGCGG	0.0655
GAGCAGAC	0.0757

Sequence	binding signal (normalized occupancy)
GCAATGTA	0.0794
CTGAGTGA	0.069
ACCGATAC	0.075
CGGATGAG	0.0718
ACTCTCTA	0.075
CTCTCAGC	0.0719
GGCGTACC	0.0666
CGGGCTGC	0.0667
CGACTGCC	0.0712
GAACGTTC	0.0746
AAAGACGA	0.076
ACGAATAA	0.081
AACGTCCA	0.0778
GGGCGGAC	0.0692
CTTGCTTC	0.0724
CGCGTTCA	0.0709
AACGCTCT	0.0765
GACAGTGC	0.0787
CGTTTAAA	0.0762
GTAGCACA	0.0812
AAAGCCAG	0.0727
